Experimental data from patent US20110269834A1 (priority 2008, published 2011).

The compounds below were run against NL63-CoV papain-like protease 2 (PLP2) (Human coronavirus NL63, UniProt P0C6X5) (assay: biochemical).

| SMILES | IC50 [µM] |
| --- | --- |
| Cc1ccccc1C(=O)N[C@H](C)c1cccc2ccccc12 [Compound 5h, 2-Methyl-N—[(R)-1-(1-naphthyl)ethyl]benzamide] | > 100 |
| Cc1ccc(N)cc1C(=O)N[C@H](C)c1cccc2ccccc12 [Compound 24, 5-Amino-2-methyl-N—[(R)-1-(1-naphthyl)ethyl]benzamide] | > 100 |
| CC(=O)Nc1ccc(C)c(C(=O)N[C@H](C)c2cccc3ccccc23)c1 [Compound 25, 5-N-Acetylamino-2-methyl-N—[(R)-1-(1-naphthyl)ethyl]benzamide] | > 100 |
